Data from paper PMC9911399, “Two distinct binding modes provide the RNA-binding protein RbFox with extraordinary sequence specificity”.
Positions count from the first letter of the chain named. Some of the results follow.

T1: RBFOX1 RRM (Homo sapiens, UniProt Q9NWB1 109-208)
T1 sequence: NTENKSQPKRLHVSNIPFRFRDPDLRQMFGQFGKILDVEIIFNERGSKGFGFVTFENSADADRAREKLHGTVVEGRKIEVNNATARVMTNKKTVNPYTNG

B1: CUGGCUC (DNA:RNA)
RNA: GGGAGACCGGAAUUCAGAUUGUCCCUGGCUCUUAAAUCCCGUCGUAGCCACCA
DNA 1: CAATCTGAATTCCGGTCTCCC
DNA 2: TGGTGGCTACGACGGGATT
B2: CGAGAUA (DNA:RNA)
RNA: B1 RNA with U26G, G27A, C29A, C31A
DNA 1: CAATCTGAATTCCGGTCTCCC
DNA 2: TGGTGGCTACGACGGGATT
B3: ACAAAGU (DNA:RNA)
RNA: GGGAGACCGGAAUUCAGAUUGUCCACAAAGUUUAAAUCCCGUCGUAGCCACCA
DNA 1: CAATCTGAATTCCGGTCTCCC
DNA 2: TGGTGGCTACGACGGGATT
B4: UACUAUG (DNA:RNA)
RNA: B3 RNA with A25U, C26A, A27C, A28U, G30U, U31G
DNA 1: CAATCTGAATTCCGGTCTCCC
DNA 2: TGGTGGCTACGACGGGATT
B5: UGACCCA (DNA:RNA)
RNA: B3 RNA with A25U, C26G, A28C, A29C, G30C, U31A
DNA 1: CAATCTGAATTCCGGTCTCCC
DNA 2: TGGTGGCTACGACGGGATT
B6: UAUAAUU (DNA:RNA)
RNA: B3 RNA with A25U, C26A, A27U, G30U
DNA 1: CAATCTGAATTCCGGTCTCCC
DNA 2: TGGTGGCTACGACGGGATT
B7: UCUUAUU (DNA:RNA)
RNA: B3 RNA with A25U, A27U, A28U, G30U
DNA 1: CAATCTGAATTCCGGTCTCCC
DNA 2: TGGTGGCTACGACGGGATT
B8: AGAAUGC (DNA:RNA)
RNA: B3 RNA with C26G, A29U, U31C
DNA 1: CAATCTGAATTCCGGTCTCCC
DNA 2: TGGTGGCTACGACGGGATT
B9: ACAGAAC (DNA:RNA)
RNA: B3 RNA with A28G, G30A, U31C
DNA 1: CAATCTGAATTCCGGTCTCCC
DNA 2: TGGTGGCTACGACGGGATT
B10: GCAGAAC (DNA:RNA)
RNA: B3 RNA with A25G, A28G, G30A, U31C
DNA 1: CAATCTGAATTCCGGTCTCCC
DNA 2: TGGTGGCTACGACGGGATT
B11: UUUGGCA (DNA:RNA)
RNA: B1 RNA with C25U, G27U, C29G, U30C, C31A
DNA 1: CAATCTGAATTCCGGTCTCCC
DNA 2: TGGTGGCTACGACGGGATT
B12: AGUUACC (DNA:RNA)
RNA: B3 RNA with C26G, A27U, A28U, G30C, U31C
DNA 1: CAATCTGAATTCCGGTCTCCC
DNA 2: TGGTGGCTACGACGGGATT
B13: AACAGUC (DNA:RNA)
RNA: B3 RNA with C26A, A27C, A29G, G30U, U31C
DNA 1: CAATCTGAATTCCGGTCTCCC
DNA 2: TGGTGGCTACGACGGGATT
B14: GAAGGAU (DNA:RNA)
RNA: B3 RNA with A25G, C26A, A28G, A29G, G30A
DNA 1: CAATCTGAATTCCGGTCTCCC
DNA 2: TGGTGGCTACGACGGGATT
B15: UCUGAGG (DNA:RNA)
RNA: B3 RNA with A25U, A27U, A28G, U31G
DNA 1: CAATCTGAATTCCGGTCTCCC
DNA 2: TGGTGGCTACGACGGGATT
B16: GUGUUUU (DNA:RNA)
RNA: B1 RNA with C25G, G28U, C29U, C31U
DNA 1: CAATCTGAATTCCGGTCTCCC
DNA 2: TGGTGGCTACGACGGGATT
B17: AUGAGAA (DNA:RNA)
RNA: B3 RNA with C26U, A27G, A29G, G30A, U31A
DNA 1: CAATCTGAATTCCGGTCTCCC
DNA 2: TGGTGGCTACGACGGGATT
B18: UAAGGCU (DNA:RNA)
RNA: B3 RNA with A25U, C26A, A28G, A29G, G30C
DNA 1: CAATCTGAATTCCGGTCTCCC
DNA 2: TGGTGGCTACGACGGGATT
B19: UGAUGAA (DNA:RNA)
RNA: B3 RNA with A25U, C26G, A28U, A29G, G30A, U31A
DNA 1: CAATCTGAATTCCGGTCTCCC
DNA 2: TGGTGGCTACGACGGGATT
B20: UCAUCGU (DNA:RNA)
RNA: B3 RNA with A25U, A28U, A29C
DNA 1: CAATCTGAATTCCGGTCTCCC
DNA 2: TGGTGGCTACGACGGGATT

biological target: T1, RBFOX1 RRM; experiment: EMSA; HiTS-Eq, 1 nM pool, 10 min; buffer printed only for the single-RNA assays: 10 mM Tris pH 7.5, 150 mM NaCl, 3.4 mM EDTA, 0.001% NP-40, 30 C; conditions: tags: His6 N-terminal (pET28a); label: 5' 32P
How it was run: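 Purified wild-type or mutant RbFox RRM at increasing concentrations was equilibrated with 1 nM of 5′-radiolabelled RNA carrying 7 randomized nucleotides for 10 min in 50 µL. Unbound RNA was separated by 8% native PAGE and sequenced. Relative association constants came from read-count changes of each RNA species compared with the control reaction, normalised to the cognate motif.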

Binder | binding signal
B1 | 0.0211 KA relative to UGCAUGU
B2 | 0.00339 KA relative to UGCAUGU
B3 | 0.00135 KA relative to UGCAUGU
B4 | 0.0137 KA relative to UGCAUGU
B5 | 0.00291 KA relative to UGCAUGU
B6 | 0.0037 KA relative to UGCAUGU
B7 | 0.00464 KA relative to UGCAUGU
B8 | 0.022 KA relative to UGCAUGU
B9 | 0.00243 KA relative to UGCAUGU
B10 | 0.00845 KA relative to UGCAUGU
B11 | 0.0195 KA relative to UGCAUGU
B12 | 0.00334 KA relative to UGCAUGU
B13 | 0.00592 KA relative to UGCAUGU
B14 | 0.00434 KA relative to UGCAUGU
B15 | 0.00717 KA relative to UGCAUGU
B16 | 0.0201 KA relative to UGCAUGU
B17 | 0.00671 KA relative to UGCAUGU
B18 | 0.0114 KA relative to UGCAUGU
B19 | 0.0191 KA relative to UGCAUGU
B20 | 0.0124 KA relative to UGCAUGU
